Results reported in the supplement of paper PMC10369915.
The other results are listed elsewhere or left out. No stated cut-off is given here; in the data, active = 3.2 or more and inactive = the rest. Only a few entries rise above the background.

Assays:
Assay in all cases: enrichment score (SH2-bound / input frequency) (ratio); bacterial display of known human phosphotyrosine sites (pTyr-Var adds point mutants) read by sequencing; higher = stronger binding; tyrosines were phosphorylated by kinases first
Conditions in all cases: peptide library: pTyr-Var
SHP2 C-SH2 domain E139D = target: SHP2 C-SH2 domain E139D
[1] = target: SHP2 C-SH2 domain wild-type
SHP2 N-SH2 domain L43F = target: SHP2 N-SH2 domain L43F
SHP2 N-SH2 domain T42A = target: SHP2 N-SH2 domain T42A
SHP2 N-SH2 domain T52S = target: SHP2 N-SH2 domain T52S
[2] = target: SHP2 N-SH2 domain wild-type

Measured: enrichment score
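Further: displayed peptides selected on beads carrying the immobilized SH2 domain, with library peptides lacking any tyrosine serving as negative controls.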

B1: DHCR24_Y299_YF (peptide)
chain: NSIGNYFKPWF
active: [1] 3.46 | SHP2 N-SH2 domain L43F 10.8 | SHP2 N-SH2 domain T42A 13.8 | SHP2 N-SH2 domain T52S 13 | [2] 5.06
inactive: SHP2 C-SH2 domain E139D 2.12

B2: DNAI2_Y5_YF (peptide)
chain: GMEIVYVFVKK
inactive: SHP2 C-SH2 domain E139D 2.49 | [1] 2.03 | SHP2 N-SH2 domain L43F 1.8 | SHP2 N-SH2 domain T42A 1.37 | SHP2 N-SH2 domain T52S 1.99 | [2] 1.85

B3: DNM2_Y626_P627R (peptide)
chain: LRAGVYREKDQ
inactive: SHP2 C-SH2 domain E139D 0.719 | [1] 0.42 | SHP2 N-SH2 domain L43F 1.25 | SHP2 N-SH2 domain T42A 0.345 | SHP2 N-SH2 domain T52S 0.748 | [2] 0.421

B4: DUOX2_Y70_Q71L_YF (peptide)
chain: FADGVYLALEE
inactive: SHP2 C-SH2 domain E139D 0.846 | [1] 0.887 | SHP2 N-SH2 domain L43F 0.927 | SHP2 N-SH2 domain T42A 0.917 | SHP2 N-SH2 domain T52S 0.862 | [2] 0.854

B5: DSCC1_Y374_H376R (peptide)
chain: ALLTKYSRSSM
inactive: SHP2 C-SH2 domain E139D 1.12 | [1] 0.862 | SHP2 N-SH2 domain L43F 0.964 | SHP2 N-SH2 domain T42A 0.879 | SHP2 N-SH2 domain T52S 1.12 | [2] 0.902

B6: DOK2_Y271 (peptide)
chain: RPDSPYSRPHD
inactive: SHP2 C-SH2 domain E139D 0.741 | [1] 0.615 | SHP2 N-SH2 domain L43F 0.685 | SHP2 N-SH2 domain T42A 0.423 | SHP2 N-SH2 domain T52S 0.572 | [2] 0.783

B7: DTX3L_Y385 (peptide)
chain: VDSAHYKLLET
inactive: SHP2 C-SH2 domain E139D 0.829 | [1] 0.626 | SHP2 N-SH2 domain L43F 0.674 | SHP2 N-SH2 domain T42A 0.647 | SHP2 N-SH2 domain T52S 0.729 | [2] 0.77

B8: DNMT3B_Y815_H814R (peptide)
chain: GFPVRYTDVSN
inactive: SHP2 C-SH2 domain E139D 0.792 | [1] 0.737 | SHP2 N-SH2 domain L43F 0.952 | SHP2 N-SH2 domain T42A 3.16 | SHP2 N-SH2 domain T52S 0.963 | [2] 0.75

B9: DLG1_Y349 (peptide)
chain: GDNSIYVTKII
inactive: SHP2 C-SH2 domain E139D 0.47 | [1] 0.534 | SHP2 N-SH2 domain L43F 0.568 | SHP2 N-SH2 domain T42A 0.467 | SHP2 N-SH2 domain T52S 0.513 | [2] 0.576

B10: DOCK3_Y548_C550S_YF (peptide)
chain: HELFVYKSDEN
inactive: SHP2 C-SH2 domain E139D 1.31 | [1] 0.894 | SHP2 N-SH2 domain L43F 1.38 | SHP2 N-SH2 domain T42A 0.796 | SHP2 N-SH2 domain T52S 1.14 | [2] 1.12

B11: DTX2_Y425 (peptide)
chain: STASGYSDVTD
inactive: SHP2 C-SH2 domain E139D 0.479 | [1] 0.568 | SHP2 N-SH2 domain L43F 0.392 | SHP2 N-SH2 domain T42A 0.462 | SHP2 N-SH2 domain T52S 0.463 | [2] 0.571

B12: DNMT3B_Y404 (peptide)
chain: LKTNCYNNGKD
inactive: SHP2 C-SH2 domain E139D 0.864 | [1] 1.26 | SHP2 N-SH2 domain L43F 1.05 | SHP2 N-SH2 domain T42A 0.749 | SHP2 N-SH2 domain T52S 1.14 | [2] 1.11

B13: DSC1_Y846 (peptide)
chain: KHCEDYVCSYN
inactive: SHP2 C-SH2 domain E139D 1.56 | [1] 1.36 | SHP2 N-SH2 domain L43F 1.67 | SHP2 N-SH2 domain T42A 1.37 | SHP2 N-SH2 domain T52S 1.56 | [2] 1.61

B14: DHCR7_Y382_C380S (peptide)
chain: VIESSYTSADG
inactive: SHP2 C-SH2 domain E139D 0.573 | [1] 0.436 | SHP2 N-SH2 domain L43F 0.647 | SHP2 N-SH2 domain T42A 0.628 | SHP2 N-SH2 domain T52S 0.474 | [2] 0.665

B15: DNM2_Y463_R465W (peptide)
chain: RIVTTYIWERE
inactive: SHP2 C-SH2 domain E139D 1.86 | [1] 1.73 | SHP2 N-SH2 domain L43F 1.26 | SHP2 N-SH2 domain T42A 1.68 | SHP2 N-SH2 domain T52S 1.41 | [2] 1.47

B16: DPPA2_Y127 (peptide)
chain: LHRHAYPEQRQ
inactive: SHP2 C-SH2 domain E139D 2.73 | [1] 2.65 | SHP2 N-SH2 domain L43F 2.53 | SHP2 N-SH2 domain T42A 2.59 | SHP2 N-SH2 domain T52S 2.7 | [2] 2.78

B17: DSCC1_Y374 (peptide)
chain: ALLTKYSHSSM
inactive: SHP2 C-SH2 domain E139D 1.2 | [1] 1.08 | SHP2 N-SH2 domain L43F 1.26 | SHP2 N-SH2 domain T42A 1.03 | SHP2 N-SH2 domain T52S 1.07 | [2] 1.36

B18: DNAI2_Y7_E2K (peptide)
chain: KIVYVYVKKRS
inactive: SHP2 C-SH2 domain E139D 0.561 | [1] 0.513 | SHP2 N-SH2 domain L43F 0.598 | SHP2 N-SH2 domain T42A 0.453 | SHP2 N-SH2 domain T52S 0.482 | [2] 0.603
